Some of the results follow. The full chains were built here from the parent and the listed change. Inactive controls read about 0.05.
B1: TEV protease; numbered along this chain (parent)
chain: MGESLFKGPRDYNPISSSICHLTNESDGHTTSLYGIGFGPFIITNKHLFRRNNGTLVVQSLHGVFKVKDTTTLQQHLVDGRDMIIIRMPKDFPPFPQKLKFREPQREERICLVTTNFQTKSMSSMVSDTSCTFPSGDGIFWKHWIQTKDGQCGSPLVSTRDGFIVGIHSASNFTNTNNYFTSVPKNFMELLTNQEAQQWVSGWRLNADSVLWGGHKVFMVKPEEPFQPVKEATQL

Variants of: B1
Assay: raw area under fraction-flipped curve 0-4 h after induction (AUC4h, not background-subtracted), DNA-recorder readout of cleavage of the substrate (dimensionless); higher = more cleavage of the substrate by the protease variant
Conditions: temperature: 34 °C; time window: 0-4 h after rhamnose induction
Protocol: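 In vivo DNA recorder in E. coli TOP10(DE3) ΔrhaA at 34 °C. Each TEVp single-site mutant (parent TEVp 0) is paired with a single-site variant of the 7-mer TEVs (canonical ENLYFQ|S). The substrate sits between flexible linkers in a Bxb1-sfGFP-TEVs-SsrA fusion, so cleavage stabilises Bxb1 and speeds flipping of a recombination array, read by NGS. The value is the raw area under the fraction-flipped curve over 0-4 h after rhamnose induction (AUC4h), with ≥20 reads per time point. It is not background-subtracted; inactive controls average about 0.047.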
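Note: Bxb1 expression induced with 0.2% (w/v) L-rhamnose at OD600 near 0.5, cultures sampled hourly, flipped fraction per protease–substrate barcode pair counted by paired-end Illumina sequencing.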

Variant	area with substrate ENLYFQC	area with substrate ENLYFQG	area with substrate ENLYFQK	area with substrate ENLYFQM	area with substrate ENLYFQN	area with substrate ENLYFQS	area with substrate ENLYFQT	area with substrate ENLYFQW	area with substrate ENLYFQD	area with substrate ENLYFQH
MGESLFKGPRDYNPISSSICHLTNESDGHTTSLYGIGFGPFIITNKHLFRRNNGTLVVQSLHGVFKGKDTTTLQQHLVDGRDMIIIRMPKDFPPFPQKLKFREPQREERICLVTTNFQTKSMSSMVSDTSCTFPSGDGIFWKHWIQTKDGQCGSPLVSTRDGFIVGIHSASNFTNTNNYFTSVPKNFMELLTNQEAQQWVSGWRLNADSVLWGGHKVFMVKPEEPFQPVKEATQL [V67G]	0.059	0.0739	0.032	0.0323	0.048	0.0625	0.0547	0.0536	–	–
MGESLFKGPRDYNPISSGICHLTNESDGHTTSLYGIGFGPFIITNKHLFRRNNGTLVVQSLHGVFKVKDTTTLQQHLVDGRDMIIIRMPKDFPPFPQKLKFREPQREERICLVTTNFQTKSMSSMVSDTSCTFPSGDGIFWKHWIQTKDGQCGSPLVSTRDGFIVGIHSASNFTNTNNYFTSVPKNFMELLTNQEAQQWVSGWRLNADSVLWGGHKVFMVKPEEPFQPVKEATQL [S18G]	0.0937	0.115	0.0506	0.08	0.0732	0.0957	–	0.0525	0.0772	0.0681
MGESLFKGPRDYNPISSSICHLTNESDGHTTSLYGIGFGPFIITNKHLFRRNNGTLVVQSLHGVFKVKDTTTLQQHLVDLRDMIIIRMPKDFPPFPQKLKFREPQREERICLVTTNFQTKSMSSMVSDTSCTFPSGDGIFWKHWIQTKDGQCGSPLVSTRDGFIVGIHSASNFTNTNNYFTSVPKNFMELLTNQEAQQWVSGWRLNADSVLWGGHKVFMVKPEEPFQPVKEATQL [G80L]	0.09	–	0.0461	–	0.103	0.106	–	–	–	0.0711
MGESLFKGPRDYNPISSSICHLTNESDGHTTSLYGIGFGPFIITNKHLFRRNNGTLVVQSLHGVFKVKDTTTLPQHLVDGRDMIIIRMPKDFPPFPQKLKFREPQREERICLVTTNFQTKSMSSMVSDTSCTFPSGDGIFWKHWIQTKDGQCGSPLVSTRDGFIVGIHSASNFTNTNNYFTSVPKNFMELLTNQEAQQWVSGWRLNADSVLWGGHKVFMVKPEEPFQPVKEATQL [Q74P]	0.14	0.0861	0.0597	–	–	0.105	–	–	–	–
MGESLFKGPRDYNPISSSICHLTNESDGHDTSLYGIGFGPFIITNKHLFRRNNGTLVVQSLHGVFKVKDTTTLQQHLVDGRDMIIIRMPKDFPPFPQKLKFREPQREERICLVTTNFQTKSMSSMVSDTSCTFPSGDGIFWKHWIQTKDGQCGSPLVSTRDGFIVGIHSASNFTNTNNYFTSVPKNFMELLTNQEAQQWVSGWRLNADSVLWGGHKVFMVKPEEPFQPVKEATQL [T30D]	0.0836	–	0.0676	–	0.077	0.0952	0.0925	0.061	–	–
MGESLFKGPRDYNPISSSICHLTNESDGHTTSLYGIGFGPFIITNKHLFRRNNGTLVVQGLHGVFKVKDTTTLQQHLVDGRDMIIIRMPKDFPPFPQKLKFREPQREERICLVTTNFQTKSMSSMVSDTSCTFPSGDGIFWKHWIQTKDGQCGSPLVSTRDGFIVGIHSASNFTNTNNYFTSVPKNFMELLTNQEAQQWVSGWRLNADSVLWGGHKVFMVKPEEPFQPVKEATQL [S60G]	0.0842	–	–	0.0758	–	0.0924	0.0567	0.0678	–	0.12
MGESLFKGPRDYNPISSSICHLTNESDGHTTSLYGIGFGPFIITNKHLFRRNNGTLVVQWLHGVFKVKDTTTLQQHLVDGRDMIIIRMPKDFPPFPQKLKFREPQREERICLVTTNFQTKSMSSMVSDTSCTFPSGDGIFWKHWIQTKDGQCGSPLVSTRDGFIVGIHSASNFTNTNNYFTSVPKNFMELLTNQEAQQWVSGWRLNADSVLWGGHKVFMVKPEEPFQPVKEATQL [S60W]	0.125	0.0728	0.0525	0.133	0.0688	0.0957	0.0629	0.0665	0.0695	0.0944
MGESLFKGPRDRNPISSSICHLTNESDGHTTSLYGIGFGPFIITNKHLFRRNNGTLVVQSLHGVFKVKDTTTLQQHLVDGRDMIIIRMPKDFPPFPQKLKFREPQREERICLVTTNFQTKSMSSMVSDTSCTFPSGDGIFWKHWIQTKDGQCGSPLVSTRDGFIVGIHSASNFTNTNNYFTSVPKNFMELLTNQEAQQWVSGWRLNADSVLWGGHKVFMVKPEEPFQPVKEATQL [Y12R]	0.0973	–	0.0654	0.0739	0.0871	0.102	0.0637	0.0584	–	–

Same assay, conditions: temperature: 34 °C; time window: 0-4 h after rhamnose induction

Variant	area with substrate ENLYFQI	area with substrate ENLYFQL	area with substrate ENLYFQP	area with substrate ENLYFQQ	area with substrate ENLYFQR	area with substrate ENLYFQV	area with substrate ENLYFQY	area with substrate ENLYFQF
MGESLFKGPRDYNPISSGICHLTNESDGHTTSLYGIGFGPFIITNKHLFRRNNGTLVVQSLHGVFKVKDTTTLQQHLVDGRDMIIIRMPKDFPPFPQKLKFREPQREERICLVTTNFQTKSMSSMVSDTSCTFPSGDGIFWKHWIQTKDGQCGSPLVSTRDGFIVGIHSASNFTNTNNYFTSVPKNFMELLTNQEAQQWVSGWRLNADSVLWGGHKVFMVKPEEPFQPVKEATQL [S18G]	0.05	0.0464	0.0919	0.0727	0.0551	0.0508	0.064	–
MGESLFKGPRDYNPISSSICHLTNESDGHTTSLYGIGFGPFIITNKHLFRRNNGTLVVQSLHGVFKVKDTTTLQQHLVDLRDMIIIRMPKDFPPFPQKLKFREPQREERICLVTTNFQTKSMSSMVSDTSCTFPSGDGIFWKHWIQTKDGQCGSPLVSTRDGFIVGIHSASNFTNTNNYFTSVPKNFMELLTNQEAQQWVSGWRLNADSVLWGGHKVFMVKPEEPFQPVKEATQL [G80L]	–	0.0633	0.103	–	0.0595	0.0586	–	–
MGESLFKGPRDYNPISSSICHLTNESDGHTTSLYGIGFGPFIITNKHLFRRNNGTLVVQSLHGVFKVKDTTTLPQHLVDGRDMIIIRMPKDFPPFPQKLKFREPQREERICLVTTNFQTKSMSSMVSDTSCTFPSGDGIFWKHWIQTKDGQCGSPLVSTRDGFIVGIHSASNFTNTNNYFTSVPKNFMELLTNQEAQQWVSGWRLNADSVLWGGHKVFMVKPEEPFQPVKEATQL [Q74P]	–	–	–	–	–	0.0712	–	–
MGESLFKGPRDYNPISSSICHLTNESDGHDTSLYGIGFGPFIITNKHLFRRNNGTLVVQSLHGVFKVKDTTTLQQHLVDGRDMIIIRMPKDFPPFPQKLKFREPQREERICLVTTNFQTKSMSSMVSDTSCTFPSGDGIFWKHWIQTKDGQCGSPLVSTRDGFIVGIHSASNFTNTNNYFTSVPKNFMELLTNQEAQQWVSGWRLNADSVLWGGHKVFMVKPEEPFQPVKEATQL [T30D]	–	–	–	–	0.0482	0.0608	0.0698	0.0582
MGESLFKGPRDYNPISSSICHLTNESDGHTTSLYGIGFGPFIITNKHLFRRNNGTLVVQGLHGVFKVKDTTTLQQHLVDGRDMIIIRMPKDFPPFPQKLKFREPQREERICLVTTNFQTKSMSSMVSDTSCTFPSGDGIFWKHWIQTKDGQCGSPLVSTRDGFIVGIHSASNFTNTNNYFTSVPKNFMELLTNQEAQQWVSGWRLNADSVLWGGHKVFMVKPEEPFQPVKEATQL [S60G]	–	–	–	–	0.0464	0.0603	–	–
MGESLFKGPRDYNPISSSICHLTNESDGHTTSLYGIGFGPFIITNKHLFRRNNGTLVVQWLHGVFKVKDTTTLQQHLVDGRDMIIIRMPKDFPPFPQKLKFREPQREERICLVTTNFQTKSMSSMVSDTSCTFPSGDGIFWKHWIQTKDGQCGSPLVSTRDGFIVGIHSASNFTNTNNYFTSVPKNFMELLTNQEAQQWVSGWRLNADSVLWGGHKVFMVKPEEPFQPVKEATQL [S60W]	0.0577	–	0.0697	–	0.0618	–	0.0799	0.0822
MGESLFKGPRDRNPISSSICHLTNESDGHTTSLYGIGFGPFIITNKHLFRRNNGTLVVQSLHGVFKVKDTTTLQQHLVDGRDMIIIRMPKDFPPFPQKLKFREPQREERICLVTTNFQTKSMSSMVSDTSCTFPSGDGIFWKHWIQTKDGQCGSPLVSTRDGFIVGIHSASNFTNTNNYFTSVPKNFMELLTNQEAQQWVSGWRLNADSVLWGGHKVFMVKPEEPFQPVKEATQL [Y12R]	0.0542	0.0545	–	–	0.0662	–	–	–
